This note sets out measurements from the antibiotic and cytotoxicity screens of Wong et al. (2023).

The structures appear in SMILES notation. Some of the results follow.

The test system of one assay is HSkMC. Briefly: cytotoxicity call (relative viability < 0.9). Particulars: 10 µM.
In another assay the test system is HepG2. Briefly: cytotoxicity call (relative viability < 0.9). Particulars: 10 µM.
In another assay the test system is S. aureus RN4220. In words: growth inhibition call (relative growth <= 0.2). Particulars: 50 µM.

Take `Cc1noc(C)c1S(=O)(=O)N(C)C[C@H]1Oc2ccc(N(C)C)cc2CC(=O)N([C@H](C)CO)C[C@H]1C`: the cytotoxicity call with HSkMC and with HepG2 was “inactive” throughout. Moreover, the growth inhibition call with S. aureus RN4220 is “inactive”.
As to `C[C@@H]1CN([C@H](C)CO)S(=O)(=O)c2ccc(C#C[C@@H](C)O)cc2O[C@H]1CN(C)C(=O)Cc1ccccn1`, the cytotoxicity call in the assay with HSkMC and in the assay on HepG2 was “inactive” each time. Also, the growth inhibition call in the assay on S. aureus RN4220 is “inactive”.
For `Cc1ccc(S(=O)(=O)N(C)C[C@@H]2OCCCC[C@H](C)Oc3ccc(NC(=O)c4ccccc4)cc3C(=O)N([C@H](C)CO)C[C@H]2C)cc1`, in the assay on HSkMC, the cytotoxicity call was “inactive”. Further, the cytotoxicity call in the assay on HepG2 is “active”. In addition, the growth inhibition call in the assay on S. aureus RN4220 was “inactive”.
For the compound `Cc1ccc(S(=O)(=O)N(C)C[C@@H]2OCCCC[C@@H](C)Oc3ccc(NC(=O)c4ccccc4)cc3C(=O)N([C@@H](C)CO)C[C@@H]2C)cc1`, the cytotoxicity call in the assay on HSkMC and in the assay with HepG2 was “inactive” in each case. The growth inhibition call with S. aureus RN4220 is “inactive”.
Regarding `COc1ccccc1CNC(=O)C[C@@H]1C[C@@H]2c3cc(NS(=O)(=O)c4ccc(F)cc4)ccc3O[C@@H]2[C@H](CO)O1`, the cytotoxicity call in the assay with HSkMC and in the assay on HepG2 was “inactive” in each case. The growth inhibition call in the assay on S. aureus RN4220 was “inactive”.
As to `C[C@H]1CN([C@@H](C)CO)C(=O)c2cc(C#CC3(O)CCCC3)cnc2O[C@H]1CN(C)C(=O)Cc1cccnc1`, the cytotoxicity call with HSkMC and in the assay with HepG2 was “inactive” throughout. Further, the growth inhibition call in the assay on S. aureus RN4220 was “inactive”.
For `NNC(=S)Nc1ccccc1`, the cytotoxicity call with HSkMC and with HepG2 was “inactive” each time. Further, the growth inhibition call in the assay with S. aureus RN4220 was “inactive”.
As for `Cc1cn2c(nc1=O)O[C@@H]1C[C@H]2O[C@@H]1CO`, the cytotoxicity call with HSkMC and in the assay with HepG2 was “inactive” each time. Besides, the growth inhibition call with S. aureus RN4220 was “inactive”.
Consider `COCC(=O)Nc1ccc2c(c1)OC[C@H](C)N(Cc1ccccc1F)C[C@H](C)[C@@H](OC)CN(C)C2=O`, for which the cytotoxicity call in the assay with HSkMC and in the assay on HepG2 was “inactive” in each case. The growth inhibition call in the assay with S. aureus RN4220 was “inactive”.
For the compound `NCC(=O)Nc1ccc(Br)cc1`, the cytotoxicity call in the assay with HSkMC and in the assay with HepG2 was “inactive” throughout. Also, the growth inhibition call with S. aureus RN4220 was “inactive”.
In the case of `COc1ccc(NC(=O)Nc2cccc3c2O[C@@H](CN(C)Cc2ccc(C(F)(F)F)cc2)[C@@H](C)CN([C@H](C)CO)C3=O)cc1`, the cytotoxicity call with HSkMC and in the assay with HepG2 was “inactive” in each case. Moreover, the growth inhibition call with S. aureus RN4220 was “inactive”.
As for `COc1ccc(CN(C)C[C@@H]2OCCCC[C@@H](C)Oc3ccc(NS(=O)(=O)c4ccc(OC)cc4)cc3C(=O)N([C@H](C)CO)C[C@@H]2C)cc1`, the cytotoxicity call in the assay with HSkMC and in the assay with HepG2 was “inactive” each time. Besides, the growth inhibition call with S. aureus RN4220 is “inactive”.
As to `C[C@@H]1CN([C@H](C)CO)S(=O)(=O)c2ccc(C#CCN(C)C)cc2O[C@H]1CN(C)Cc1ccc2c(c1)OCO2`, the cytotoxicity call in the assay with HSkMC and in the assay with HepG2 was “inactive” throughout. Besides, in the assay on S. aureus RN4220, the growth inhibition call was “inactive”.
Take `C[C@H](CO)N1C[C@H](C)[C@H](CN(C)S(=O)(=O)c2ccccc2)Oc2c(NC(=O)c3ccncc3)cccc2C1=O`: the cytotoxicity call with HSkMC and with HepG2 was “inactive” throughout. Also, in the assay on S. aureus RN4220, the growth inhibition call was “inactive”.
For the compound `C[C@@H]1CCCCO[C@H](CN(C)C(=O)Nc2cccc3ccccc23)[C@@H](C)CN([C@@H](C)CO)C(=O)c2cc(NS(=O)(=O)c3ccccc3)ccc2O1`, the cytotoxicity call in the assay with HSkMC and in the assay on HepG2 was “inactive” in each case. Also, the growth inhibition call in the assay on S. aureus RN4220 is “inactive”.
Take `COc1ccc(S(=O)(=O)Nc2ccc3c(c2)C(=O)N([C@@H](C)CO)C[C@H](C)[C@H](CN(C)Cc2ccc(C(=O)O)cc2)OCCCC[C@@H](C)O3)cc1`: the cytotoxicity call in the assay on HSkMC and in the assay with HepG2 was “inactive” throughout. Also, in the assay with S. aureus RN4220, the growth inhibition call is “inactive”.
Regarding `C[C@@H]1CN([C@@H](C)CO)C(=O)c2cc(NS(=O)(=O)c3cn(C)cn3)ccc2O[C@H]1CN(C)Cc1ccc2c(c1)OCO2`, the cytotoxicity call in the assay on HSkMC and in the assay with HepG2 was “inactive” throughout. Also, the growth inhibition call in the assay on S. aureus RN4220 is “inactive”.
Turning to `N[C@]1(C(=O)O)C[C@H](C(=O)O)C1`, the cytotoxicity call in the assay on HSkMC and in the assay with HepG2 was “inactive” each time. For the same compound, the growth inhibition call with S. aureus RN4220 was “inactive”.
With `C[C@@H]1CN([C@@H](C)CO)C(=O)c2cccc(NC(=O)c3cnccn3)c2O[C@@H]1CN(C)S(C)(=O)=O`, the cytotoxicity call in the assay on HSkMC and in the assay with HepG2 was “inactive” each time. Moreover, in the assay with S. aureus RN4220, the growth inhibition call was “inactive”.
Consider `C[C@H]1CN([C@@H](C)CO)C(=O)CCCn2nncc2CO[C@@H]1CN(C)S(=O)(=O)c1ccc(Oc2ccccc2)nc1`, for which the cytotoxicity call in the assay with HSkMC and in the assay with HepG2 was “inactive” each time. In addition, the growth inhibition call with S. aureus RN4220 was “inactive”.
As to `Cc1ccc(S(=O)(=O)N(C)C[C@@H]2Oc3ccc(NC(=O)c4ccncc4)cc3CC(=O)N([C@H](C)CO)C[C@@H]2C)cc1`, the cytotoxicity call in the assay on HSkMC and in the assay on HepG2 was “inactive” throughout. The growth inhibition call in the assay on S. aureus RN4220 was “inactive”.
Consider `CC(C)CC[C@@H](O)[C@H]1C[C@@H](CO)OC1=O`, for which the cytotoxicity call in the assay with HSkMC and in the assay on HepG2 was “inactive” each time. For the same compound, the growth inhibition call in the assay with S. aureus RN4220 was “inactive”.
As for `C[C@@H]1CCCCO[C@@H](CN(C)Cc2ccc(C(=O)O)cc2)[C@@H](C)CN([C@H](C)CO)C(=O)c2cc(NC(=O)C3CCCCC3)ccc2O1`, the cytotoxicity call in the assay with HSkMC and in the assay with HepG2 was “inactive” each time. In the assay on S. aureus RN4220, the growth inhibition call is “inactive”.
With `C[C@H](CO)N1C[C@H](C)[C@@H](CN(C)S(=O)(=O)c2ccc3c(c2)OCCCO3)OCc2cn(nn2)CCCC1=O`, the cytotoxicity call with HSkMC and in the assay on HepG2 was “inactive” each time. The growth inhibition call with S. aureus RN4220 was “inactive”.
For `C[C@@H]1CN([C@H](C)CO)C(=O)c2cc(NC(=O)Nc3ccc(C(F)(F)F)cc3)ccc2O[C@@H](C)CCCCO[C@H]1CN(C)Cc1ccc(Cl)c(Cl)c1`, the cytotoxicity call in the assay with HSkMC and with HepG2 was “inactive” throughout. The growth inhibition call in the assay with S. aureus RN4220 is “inactive”.
With `Nc1cc(=O)[nH]c(=O)n1-c1ccc(Cl)cc1`, the cytotoxicity call in the assay on HSkMC (human skeletal muscle cells) and with HepG2 was “inactive” in each case. The growth inhibition call in the assay on S. aureus RN4220 was “inactive”.
